Assay results: the supplement of paper PMC9446081
The whole screen tested about 39,000 compounds, of which about 220 (0.56%) showed activity. Some of the results follow.

Each molecule was assayed on Escherichia coli K-12 BW25113 (assay: relative growth (OD600 normalised to plate interquartile mean) (fraction); higher = less growth inhibition, active = 0.2 or less). Conditions: 50 µM; LB; incubation time: overnight (16-24 h).
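Note: static incubation at 37 °C against the wild-type strain, values averaged over two biological replicates.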

| Compound | relative growth |
| --- | --- |
| CCC(=O)Nc1ccc(C)cc1C | inactive: 1.04 |
| COCCOC(=O)N1C(=O)[C@@]2(c3ccccc31)[C@H](c1ccccc1OCCO)N1[C@H](c3ccccc3)[C@H](c3ccccc3)OC(=O)[C@H]1[C@@H]2C(=O)N1CCc2cc(OC)c(OC)cc2C1 | inactive: 1.05 |
| CO[C@H]1CN(C(=O)c2ccnnc2)[C@H]2COC[C@@H]12 | inactive: 0.979 |
| Cn1c(Nc2ccc(C(F)(F)F)cc2)nc2cc(Oc3ccnc(-c4ncc(C(F)(F)F)[nH]4)c3)ccc21 | inactive: 1.04 |
| NC[C@@](O)(c1ccc(Cl)cc1)c1ccc(-c2cn[nH]c2)cc1 | inactive: 0.98 |
| COc1cccc(NC(=O)C[C@H]2CC[C@@H]3[C@H](COc4ccc(NC(=O)C5CCOCC5)cc4C(=O)N3C)O2)c1 | inactive: 0.986 |
| NC(=O)NCC#Cc1ccc2c(c1)[C@]1(C(=O)N2)[C@H](c2ccccc2OCCO)N2[C@H](c3ccccc3)[C@H](c3ccccc3)OC(=O)[C@H]2[C@@H]1C(=O)O | inactive: 0.874 |
| COc1ccc(NC(=O)N(C)C[C@@H]2OCCCC[C@H](C)Oc3ccc(NC(=O)c4ccccc4)cc3C(=O)N([C@H](C)CO)C[C@@H]2C)cc1 | inactive: 0.988 |
| C[C@H](CO)N1C[C@H](C)[C@H](CN(C)C(=O)Nc2ccc(C(F)(F)F)cc2)Oc2ccc(NC(=O)Nc3ccc(C(F)(F)F)cc3)cc2CC1=O | inactive: 1.01 |
| COc1ccc(S(=O)(=O)Nc2ccc3c(c2)C(=O)N([C@H](C)CO)C[C@@H](C)[C@@H](CN(C)CC2CCCCC2)OCCCC[C@H](C)O3)cc1 | inactive: 1 |
| C[C@@H]1CN([C@@H](C)CO)C(=O)c2cc(NC(=O)Nc3ccccc3)ccc2O[C@@H](C)CCCCO[C@@H]1CN(C)Cc1ccccc1 | inactive: 1 |
| C=CC[C@H](CC(=O)N[C@@H](CO)Cc1ccccc1)C(=O)N[C@@H](COC(=O)[C@@H](CC=C)Cc1ccc(F)cc1)Cc1c[nH]c2ccccc12 | inactive: 1.03 |
| CCc1nc2c(OCC(=O)c3ccc(Cl)cc3Cl)cccn2c1N(C=O)Cc1ccc(OC)cc1 | inactive: 1.03 |
| C[C@@H]1CCCCO[C@@H](CN(C)S(=O)(=O)c2cccs2)[C@@H](C)CN([C@@H](C)CO)C(=O)c2cc(NC(=O)CCC(F)(F)F)ccc2O1 | inactive: 1.02 |
| O=C(C[C@H]1C[C@H]2c3cc(NC(=O)NC4CCCC4)ccc3O[C@H]2[C@H](CO)O1)NCCN1CCCCC1 | inactive: 1.04 |
| Cc1noc(C)c1NC(=O)Nc1ccc2c(c1)C(=O)N([C@H](C)CO)C[C@H](C)[C@@H](CN(C)C(=O)c1ccccc1)OCCCC[C@H](C)O2 | inactive: 0.999 |
